# Laboratory results taken from PubChem BioAssay AID686971 (National Center for Advancing Translational Sciences (NCATS), 2013).
# The whole screen tested about 360,000 compounds, of which about 7,500 (2.1%) were called active. The inconclusive results got no clear call from the source; some entries with a clear call stand among them for comparison. The call rests on the fitted dose curve; in most records, active means well fitted cell-killing curve with a large enough effect; inconclusive means small, poorly fitted or top-dose-only effect, or effect the other way, or another doubt; inactive means no such curve, though single readings can be large or run the other way. No potency is given beside an inconclusive call; the fits are too rough.
# Assay: qHTS for induction of synthetic lethality in tumor cells producing 2HG: qHTS for the HT-1080-IDH1KD cell line;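 on activity, negative = toxicity: 0% = DMSO wells and -100% = cell-free medium wells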
# Conditions: HT-1080 IDH1 knockdown viability, ATP luminescence, 48 h; activity, negative = toxicity: at 46.1 µM (top of the series) unless noted
# Method in brief: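 Using the IDH1-knockdown HT-1080 line run in the same batch and compound series as the NT line, viability after 48 h at 37 °C was determined by CellTiter-Glo luminescence and expressed as % activity.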
# Potency means the concentration at half of the fitted maximal effect; tags describe the fitted curve by direction and shape.
Structure (SMILES),Potency,"activity, negative = toxicity"
c1ccc2c(c1)CCN(C1=Nc3cccc4cccc1c34)C2,"inconclusive [cytotoxic, single point]",–
O=S1(=O)NC(CC2=CCCCC2)C2CCCCC2O1 (stereo not drawn),–,inactive: 10.6%
Cc1nn(-c2ccccc2)c(Cl)c1/C=N/NC(=O)c1cccc(S(=O)(=O)N2CCCC2)c1,–,inactive: 0.446%
O=C(CCN1C(=O)/C(=C\c2ccccc2)SC1=S)N1CCCCC1,"inconclusive [cytotoxic, partial curve, poor fit]",–
Cc1cc(C)c2c(n1)sc1c(N3CCCCC3)ncnc12,–,inactive: 10.8%
CC[C@]12c3[nH]c4cc(-c5ccco5)ccc4c3CCN1C(=O)[C@@H](CC(=O)NC/C=C(\C)CCC=C(C)C)C[C@@H]2C(=O)N1CCN(C(=O)C2CC2)CC1,"inconclusive [cytotoxic, single point]",–
CCOC(=O)N1CCN(C(=O)c2nn(-c3ccc(C)cc3)c(=O)c3c2c2ccccc2n3C)CC1,"inconclusive [cytotoxic, single point]",–
CC(C)OC(=O)c1ccc(NC(=O)c2ccco2)cc1,–,inactive: -10.9%
CCN(CC)c1ccc2nc3ccccc3[n+](CC)c2c1,active: 23.1 µM,–
Cc1cccc(NC(=O)CN2CCN(C(=O)CN3C(=O)NC4(CC(C)CC(C)(C)C4)C3=O)CC2)c1C (stereo not drawn),–,inactive: -7.32%
CCCCC1(O)CC(C(F)(F)F)=NN1C(=O)COc1ccccc1 (stereo not drawn),"inconclusive [cytotoxic, single point]",–
COc1ccc(CCNS(=O)(=O)c2cccc3cccnc23)cc1OC,–,inactive: -2.69%
CC1CCCN(C(=O)c2ccc(NS(=O)(=O)c3cccc([N+](=O)[O-])c3)cc2)C1 (stereo not drawn),–,inactive: -0.179%
Cc1ccc(-n2nnnc2SCc2nc3sc(C)c(C)c3c(=O)[nH]2)cc1,–,inactive: -0.0598%
Cc1cc(C)cc(Oc2ccccc2C=O)c1,–,inconclusive: -30.6% [cytotoxic]
CC(C)(C#CCN1CCCCC1)OCCOC(c1ccccc1)c1ccccc1,"inconclusive [cytotoxic, single point]",–
COc1ccc(-c2sc3ccc(OC)cc3c2-c2ccc(O)cc2)cc1,–,inconclusive: -93.6%
COc1cccc(NC(=O)CSc2nc3ccccc3nc2N2CCCC2)c1,"inconclusive [cytotoxic, partial curve]",–
CCn1nc(C)cc1C(=O)N1CCc2c([nH]c3ccccc23)C1c1cc(F)ccc1F (stereo not drawn),active: 23.1 µM,–
COc1ccc(-c2oc3cc(OC(C)=O)cc(OC(C)=O)c3c(=O)c2OC)cc1,"inconclusive [cytotoxic, single point]",–
COc1ccc(-c2coc3c(C(=O)NCCN4CCOCC4)cccc23)c(C)c1,"inconclusive [cytotoxic, single point]",–
CC(=NNC(=S)N1CCC1)c1ccccn1,"inconclusive [cytotoxic, full curve]",–
Nc1ccn([C@@H]2O[C@H](C(=O)N3CCN(c4ccc(Cl)cn4)CC3)[C@@H](O)[C@H]2O)c(=O)n1,–,inactive: 16.4%
c1ccc(Nc2cc(Nc3ccccc3)[nH]n2)cc1,"inconclusive [cytotoxic, single point]",–
O=C(NNC(=O)c1ccc([N+](=O)[O-])cc1C(=O)O)c1ccncc1,–,inactive: 21.7%

Structure (SMILES),Potency,"activity, negative = toxicity"
COc1ccc(CNC(=O)CCNS(=O)(=O)c2ccc3c(c2)oc(=O)n3C)cc1,–,inactive: -2.51%
O=C(Nc1ccccc1N1CCN(C(=O)c2ccccc2)CC1)c1cccc(Cl)c1,–,inactive: 6.86%
Cc1nn(Cc2ccc(Cl)cc2Cl)c(C)c1NC(=O)CCl,"inconclusive [cytotoxic, single point]",–
c1cc2cc(CNc3nc(NCC4CC4)nc4ccsc34)ccc2o1,active: 13 µM,–
O=C(Nc1ccccc1C(=O)N1CCOCC1)c1cccc(S(=O)(=O)N2CCCC2)c1,–,inactive: -0.275%
O=C(CN(c1ccccn1)S(=O)(=O)c1ccc(F)cc1)Nc1ccc(F)cc1F,–,inactive: 2.2%
Cc1cc(Cl)ccc1C(=O)C1CCCN(C(=O)c2cncs2)C1 (stereo not drawn),–,inactive: -6.67%
Cc1cccc(NC(=S)NCC(C)CSc2ccc(Cl)cc2)c1 (stereo not drawn),"inconclusive [cytotoxic, single point]",–
CCN(CC)C(=O)C1=C(C)N(Cc2ccc(C(C)(C)C)cc2)C(=O)C(CC(=O)NCCCCc2ccccc2)C1 (stereo not drawn),"inconclusive [cytotoxic, single point]",–
O=C(CN1C(=O)/C(=C2\SC(=S)N(C3CCS(=O)(=O)C3)C2=O)c2ccccc21)Nc1ccc(F)cc1 (stereo not drawn),–,inactive: 3.07%
COc1ccc(CN(C)CC(O)COC(c2ccc(OC)cc2)c2ccc(OC)cc2)cc1 (stereo not drawn),"inconclusive [cytotoxic, single point]",–
CN(C)S(=O)(=O)c1ccc(NCC2COc3ccccc3O2)c([N+](=O)[O-])c1 (stereo not drawn),–,inactive: -9.91%
Cc1ccc(S(=O)(=O)Nc2ccccc2C(=O)Nc2nc(-c3ccc(F)cc3)cs2)cc1,"inconclusive [cytotoxic, full curve]",–
O=C(CCl)Nc1cccc(Oc2cnccn2)c1,"inconclusive [cytotoxic, single point]",–
O=C(CCc1ccccc1)NCC(=O)N/N=C/c1ccc(O)cc1O,"inconclusive [cytotoxic, single point]",–
O=C(Nc1cccc(S(=O)(=O)N2CCCCC2)c1)c1ccc2c(=O)n3c(nc2c1)CCCCC3,"inconclusive [cytotoxic, single point]",–
C=C(C)C(=O)Oc1ccc(N=Nc2ccc(C)cc2)ccc1=O,active: 23.1 µM,–
CCOC(=O)CN1C(=O)C(O)(c2c(C)[nH]c3ccccc23)c2ccccc21 (stereo not drawn),–,inactive: 0.979%
C[n+]1c2n(c3ccccc31)N=C(c1ccc(Cl)cc1)CS2,"inconclusive [cytotoxic, partial curve]",–
Cc1ccc(SCC(=O)OCC(=O)N(CC(C)C)c2c(N)n(Cc3ccccc3)c(=O)[nH]c2=O)c(C)c1,active: 23.1 µM,–
O=C(NCCCn1ccnc1)c1ccc(N2CCCCC2)c([N+](=O)[O-])c1,"inconclusive [cytotoxic, single point]",–
Cc1nn(-c2ccccc2)c(N)c1N=Nc1cccc(S(=O)(=O)N2CCOCC2)c1,"inconclusive [cytotoxic, single point]",–
CCn1c(-c2cccnc2Cl)nc2cc(Cl)c(Cl)cc21,"inconclusive [cytotoxic, single point]",–
COCCOC(=O)c1[nH]c2c(c1C)C(=O)CC(c1cccs1)C2 (stereo not drawn),active: 4.61 µM,–
COc1cccc(-c2cc(NC=O)c3ncc(-c4cccc(C(=O)NCCN(C)C)c4)n3c2)c1,active: 20.6 µM,–

Structure (SMILES),Potency,"activity, negative = toxicity"
N#C/C(=C\c1cn(Cc2ccc(C#N)cc2)c2ccccc12)C(=O)NCc1cccs1,"inconclusive [cytotoxic, single point]",–
Cc1ccc(-c2cc(=O)[nH]c(NCc3ccccc3)n2)cc1,"inconclusive [cytotoxic, partial curve]",–
CCOc1cc(/C=C2\CCC/C(=C\c3cc(Cl)c(O)c(OCC)c3)C2=O)cc(Cl)c1O,active: 5.8 µM,–
CCOC(=O)c1ccc(NCCOC)c([N+](=O)[O-])c1,–,inactive: 8.09%
Cc1ccc(N/C(CSC(N)=O)=N\S(=O)(=O)c2ccc(C)cc2)cc1,–,inactive: 0.646%
O=C(CCc1ccccc1)Nc1ncc([N+](=O)[O-])s1,"inconclusive [cytotoxic, partial curve]",–
CCCCN(CCCC)S(=O)(=O)c1ccc(C(=O)Nc2nnc(CSC)o2)cc1,–,inconclusive: -7.32% [cytotoxic]
C=CCNC(=S)NNC(=O)c1cccn(Cc2ccc(Cl)c(Cl)c2)c1=O,"inconclusive [cytotoxic, single point]",–
CCCc1nc(SCC(=O)Nc2ccccc2)c2c(=O)n(C)c(=O)n(C)c2n1,–,inactive: 0.792%
COc1ccc(Br)cc1/C=C/C(=O)Nc1c(C)cccc1C,"inconclusive [cytotoxic, single point]",–
COc1cc2c(cc1NC(=O)C(C)Sc1ccc(NC(C)=O)cc1)oc1ccccc12 (stereo not drawn),"inconclusive [cytotoxic, partial curve]",–
Nc1nc(OCC2CCCCC2)c2[nH]cnc2n1,"inconclusive [cytotoxic, single point]",–
Fc1ccc(Oc2nc(-c3ccccc3)nnc2C(F)(F)F)cc1,–,inactive: 17.6%
COc1ccc(/C=N/NC(=O)CCCOc2ccc(Cl)cc2Cl)cc1,–,inactive: -11.8%
CC(C)CCN(C(=O)CNC(=O)c1ccco1)C(C(=O)NC1CCCCC1)c1ccco1 (stereo not drawn),–,inactive: 2.63%
O=C(CCCC(=O)N(CC(=O)NC1CCCC1)Cc1ccccc1)Nc1ccccn1,–,inactive: 16.3%
COc1ccc(OC)c(Nc2cc(C)c3ccccc3n2)c1,"inconclusive [cytotoxic, single point]",–
O=C(NC1CCCCCCC1)c1ccc2c(c1)N(Cc1ccc(F)cc1)C(=O)CS2=O (stereo not drawn),"inconclusive [cytotoxic, single point]",–
Cc1ccc(-c2ccc(CN3C(C)C(=O)N(Cc4cn(Cc5ccco5)nn4)CCS3(=O)=O)cc2)c(C)c1 (stereo not drawn),"inconclusive [cytotoxic, single point]",–
CCCOCc1ccc(O)c2ncccc12,"inconclusive [cytotoxic, single point]",–
O=C(CCc1ccccc1)Nc1ccc(Cl)cn1,active: 2.91 µM,–
COc1cccc(NC2=C(Cl)C(=O)OC2OC(=O)c2ccco2)c1 (stereo not drawn),–,inactive: -23.2%
C=CCn1c(SCC(=O)Nc2ccc(-c3nc4ccc(C)cc4s3)cc2)nnc1-c1ccccc1,"inconclusive [cytotoxic, single point]",–
